Test results as given in publication PMC3391236.
Like-named read-outs stand apart in the source and are kept apart here. No constants are given. Whether binding was seen depends on the method and setting. Binding seen in cells or lysates may run through a third protein. Some results given as binding are weak or reduced against the parent protein; the word gives no strength.

Sequences of proteins named here, by UniProt entry; tags and fusion partners are left off. A change or cut given only in a name is not applied to a line headed by its entry. Residues count along the entry.
UniProt P12980: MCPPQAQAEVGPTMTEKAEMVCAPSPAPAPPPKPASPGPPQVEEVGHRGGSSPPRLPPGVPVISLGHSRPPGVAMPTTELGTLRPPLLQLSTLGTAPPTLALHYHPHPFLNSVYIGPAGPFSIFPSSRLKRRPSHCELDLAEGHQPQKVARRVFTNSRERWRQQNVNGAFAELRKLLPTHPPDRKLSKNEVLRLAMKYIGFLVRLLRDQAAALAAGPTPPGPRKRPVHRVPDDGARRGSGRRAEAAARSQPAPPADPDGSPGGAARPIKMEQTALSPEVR
GST-LYL1 bHLH: residues 114-221 of P12980

B1: E47 (protein, UniProt P15923-2 1-651)
chain: MNQPQRMAPVGTDKELSDLLDFSMMFPLPVTNGKGRPASLAGAQFGGSGLEDRPSSGSWGSGDQSSSSFDPSRTFSEGTHFTESHSSLSSSTFLGPGLGGKSGERGAYASFGRDAGVGGLTQAGFLSGELALNSPGPLSPSGMKGTSQYYPSYSGSSRRRAADGSLDTQPKKVRKVPPGLPSSVYPPSSGEDYGRDATAYPSAKTPSSTYPAPFYVADGSLHPSAELWSPPGQAGFGPMLGGGSSPLPLPPGSGPVGSSGSSSTFGGLHQHERMGYQLHGAEVNGGLPSASSFSSAPGATYGGVSSHTPPVSGADSLLGSRGTTAGSSGDALGKALASIYSPDHSSNNFSSSPSTPVGSPQGLAGTSQWPRAGAPGALSPSYDGGLHGLQSKIEDHLDEAIHVLRSHAVGTAGDMHTLLPGHGALASGFTGPMSLGGRHAGLVGGSHPEDGLAGSTSLMHNHAALPSQPGTLPDLSRPPDSYSGLGRAGATAAASEIKREEKEDEENTSAADHSEEEKKELKAPRARTSSTDEVLSLEEKDLRDRERRMANNARERVRVRDINEAFRELGRMCQMHLKSDKAQTKLLILQQAVQVILGLEQQVRERNLNPKAACLKRREEEKVSGVVGDPQMVLSAPHPGLSEAHNPAGHM

Experiments:
GST-TAL1 bHLH (human) = GST-TAL1 bHLH (human) (UniProt P17542); assay: pull-down; bacterially expressed GST fusion proteins (bHLH domains) on glutathione-Sepharose beads incubated with [35S]-methionine-labeled in vitro-translated TAL1 or LYL1; SDS-PAGE and autoradiography; only the target purified
GST-LYL1 bHLH (human) = GST-LYL1 bHLH (human) (UniProt P12980); assay: as above
TAL1 (human) = TAL1 (human) (UniProt P17542); assay: co-IP; 293T cells cotransfected with expression vectors (TAL1, Flag- or HA-LYL1, E47, HA-LMO2, GATA2 in combinations); lysis in 10 mM Tris-HCl pH 7.5, 150 mM NaCl, 0.1% Triton X100; 600 ug whole cell extract with anti-TAL1 mAb on GammaBind G sepharose, anti-Flag-M2 affinity gel or anti-HA agarose, 4 h at 4°C; washed with NET-2 buffer; immunoblot
[1] = molecular target: LYL1 tagged with Flag or HA (human) (UniProt P12980); assay: as above
[2] = molecular target: LYL1 tagged with Flag or HA (human) (UniProt P12980); assay: as above; remark: listed apart in the source

Molecule | binding (GST-TAL1 bHLH (human)) | binding (GST-LYL1 bHLH (human)) | binding [1] | also measured
in vitro-translated LYL1 (from UniProt P12980 1-280) | no binding | binds | – | –
LYL1 tagged with Flag or HA (from UniProt P12980 1-280) | – | – | binds | binding (TAL1 (human)): binds
in vitro-translated TAL1 (from UniProt P17542 1-331) | no binding | no binding | – | –
TAL1 (from UniProt P17542 1-331) | – | – | binds | –
B1 | – | – | – | binding [2]: binds weakly
